{"source": "the supplement of paper PMC5499739", "note": "Over roughly 16,000 sequences, “Z-score” has its median near -0.37; the highest 2% begin near 3.1. Some of the results follow."}
{"system": "RBM10 RRM1-ZnF-RRM2 (GST-tagged construct)", "assay": "RNAcompete 7-mer binding Z-score; higher = stronger binding preference", "method": "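RNAcompete: 20 pmol GST-tagged RBM10 RNA-binding constructs were incubated with a designed RNA pool of about 241,000 sequences up to 41 nt (1.5 nmol) on glutathione beads for 30 min at 4 °C and washed. Bound RNAs were identified by microarray hybridisation. Each RNA 7-mer is scored by a one-sided Z-score of its enrichment, computed over probes that contain the 7-mer within longer pool sequences.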"}
{"sequence": "UGUAGCC", "RNAcompete 7-mer binding Z-score": -0.624}
{"sequence": "GAAAAGC", "RNAcompete 7-mer binding Z-score": 0.268}
{"sequence": "CCAAAAC", "RNAcompete 7-mer binding Z-score": -0.719}
{"sequence": "GUGCUCG", "RNAcompete 7-mer binding Z-score": -0.18}
{"sequence": "ACUCAAC", "RNAcompete 7-mer binding Z-score": -0.741}
{"sequence": "UUGAAUC", "RNAcompete 7-mer binding Z-score": -0.562}
{"sequence": "UAGGUUU", "RNAcompete 7-mer binding Z-score": 0.876}
{"sequence": "AAUACAG", "RNAcompete 7-mer binding Z-score": 0.388}
{"sequence": "UGAGCAA", "RNAcompete 7-mer binding Z-score": 0.206}
{"sequence": "UCGCGAC", "RNAcompete 7-mer binding Z-score": -0.723}
{"sequence": "UUGGACU", "RNAcompete 7-mer binding Z-score": -0.249}
{"sequence": "GUACAAG", "RNAcompete 7-mer binding Z-score": 0.654}
{"sequence": "ACAGCCU", "RNAcompete 7-mer binding Z-score": -0.708}
{"sequence": "AAAUUAA", "RNAcompete 7-mer binding Z-score": -0.541}
{"sequence": "UAGUUAU", "RNAcompete 7-mer binding Z-score": -0.464}
{"sequence": "UCUAAAU", "RNAcompete 7-mer binding Z-score": -0.741}
{"sequence": "CUGUACC", "RNAcompete 7-mer binding Z-score": -0.726}
{"sequence": "CCGACCU", "RNAcompete 7-mer binding Z-score": -0.963}
{"sequence": "UAGAGGG", "RNAcompete 7-mer binding Z-score": 3.16}
{"sequence": "ACUUUUA", "RNAcompete 7-mer binding Z-score": -0.828}
{"sequence": "CAGCAAG", "RNAcompete 7-mer binding Z-score": -0.0889}
{"sequence": "UACUAUU", "RNAcompete 7-mer binding Z-score": -0.675}
{"sequence": "CACGAUU", "RNAcompete 7-mer binding Z-score": -0.606}
{"sequence": "UGCAUAA", "RNAcompete 7-mer binding Z-score": -0.424}
{"sequence": "AUCGAAU", "RNAcompete 7-mer binding Z-score": -0.355}
{"sequence": "CAGUGCG", "RNAcompete 7-mer binding Z-score": 0.359}
{"sequence": "CGGAGGU", "RNAcompete 7-mer binding Z-score": 2.46}
{"sequence": "UCUCAAU", "RNAcompete 7-mer binding Z-score": -0.617}
{"sequence": "AUACGUG", "RNAcompete 7-mer binding Z-score": 0.337}
{"sequence": "GGGGGAU", "RNAcompete 7-mer binding Z-score": 2.89}
{"sequence": "AAGCUGG", "RNAcompete 7-mer binding Z-score": 0.548}
{"sequence": "CCCGGAC", "RNAcompete 7-mer binding Z-score": -0.526}
{"sequence": "UUACUAG", "RNAcompete 7-mer binding Z-score": -0.249}
{"sequence": "CCACGCA", "RNAcompete 7-mer binding Z-score": -0.664}
{"sequence": "AGGUCAU", "RNAcompete 7-mer binding Z-score": 0.151}
{"sequence": "GAACUGU", "RNAcompete 7-mer binding Z-score": -0.231}
{"sequence": "UGCGUGA", "RNAcompete 7-mer binding Z-score": 0.381}
{"sequence": "GAUGCGA", "RNAcompete 7-mer binding Z-score": 0.385}
{"sequence": "GGCCCGU", "RNAcompete 7-mer binding Z-score": -0.449}
{"sequence": "AGUUAAG", "RNAcompete 7-mer binding Z-score": 0.181}
{"sequence": "UCUGGGC", "RNAcompete 7-mer binding Z-score": -0.0525}
{"sequence": "UCCAUGG", "RNAcompete 7-mer binding Z-score": -0.0707}
{"sequence": "CAGACUC", "RNAcompete 7-mer binding Z-score": -0.734}
{"sequence": "CUUAUGC", "RNAcompete 7-mer binding Z-score": -0.941}
{"sequence": "CGCUGUA", "RNAcompete 7-mer binding Z-score": -0.457}
{"sequence": "GUAUUAC", "RNAcompete 7-mer binding Z-score": -0.125}
{"sequence": "ACAAAAA", "RNAcompete 7-mer binding Z-score": -0.264}
{"sequence": "CUACCUG", "RNAcompete 7-mer binding Z-score": -1.01}
{"sequence": "UCCAUCA", "RNAcompete 7-mer binding Z-score": -0.715}
{"sequence": "UAGCUUG", "RNAcompete 7-mer binding Z-score": -0.53}
{"sequence": "GAAUCCC", "RNAcompete 7-mer binding Z-score": -0.657}
{"sequence": "GACGUCA", "RNAcompete 7-mer binding Z-score": -0.551}
{"sequence": "AUACGAA", "RNAcompete 7-mer binding Z-score": 0.0969}
{"sequence": "ACAGGAC", "RNAcompete 7-mer binding Z-score": 1.29}
{"sequence": "ACCUCGG", "RNAcompete 7-mer binding Z-score": -0.5}
{"sequence": "AAGCCCC", "RNAcompete 7-mer binding Z-score": -0.777}
{"sequence": "CAGCUUC", "RNAcompete 7-mer binding Z-score": -0.927}
{"sequence": "CCCUUGC", "RNAcompete 7-mer binding Z-score": -0.825}
{"sequence": "UGCAGGG", "RNAcompete 7-mer binding Z-score": 2.53}
{"sequence": "CCAUGGG", "RNAcompete 7-mer binding Z-score": 1.24}
{"sequence": "GGCCAUA", "RNAcompete 7-mer binding Z-score": -0.107}
{"sequence": "AGGUCGU", "RNAcompete 7-mer binding Z-score": 0.461}
{"sequence": "GAGGUGG", "RNAcompete 7-mer binding Z-score": 3.37}
{"sequence": "CGCGCCC", "RNAcompete 7-mer binding Z-score": -0.522}
{"sequence": "AAGCGAC", "RNAcompete 7-mer binding Z-score": -0.0452}
{"sequence": "UCGUCUA", "RNAcompete 7-mer binding Z-score": -0.657}
{"sequence": "UUAAUCC", "RNAcompete 7-mer binding Z-score": -0.766}
{"sequence": "GAGUCGU", "RNAcompete 7-mer binding Z-score": 0.793}
{"sequence": "UAGUGUA", "RNAcompete 7-mer binding Z-score": 0.192}
{"sequence": "AUCCAUU", "RNAcompete 7-mer binding Z-score": -0.708}
{"sequence": "CAUGCUA", "RNAcompete 7-mer binding Z-score": -0.635}
{"sequence": "CCCAGUC", "RNAcompete 7-mer binding Z-score": -0.683}
{"sequence": "GAGAGUA", "RNAcompete 7-mer binding Z-score": 0.771}
{"sequence": "CUAAUCC", "RNAcompete 7-mer binding Z-score": -0.752}
{"sequence": "UCGCCCC", "RNAcompete 7-mer binding Z-score": -0.708}
{"sequence": "UGCGACU", "RNAcompete 7-mer binding Z-score": -0.3}
{"sequence": "GAUCCUC", "RNAcompete 7-mer binding Z-score": -0.828}
{"sequence": "GGCUUUA", "RNAcompete 7-mer binding Z-score": -0.61}
{"sequence": "UUUUCAG", "RNAcompete 7-mer binding Z-score": -0.548}
{"sequence": "AAGACGG", "RNAcompete 7-mer binding Z-score": 1.86}
{"sequence": "GCCCACU", "RNAcompete 7-mer binding Z-score": -0.759}
{"sequence": "CUAAUUG", "RNAcompete 7-mer binding Z-score": -0.653}
{"sequence": "GGAAAAG", "RNAcompete 7-mer binding Z-score": 2.97}
{"sequence": "GCAGUCG", "RNAcompete 7-mer binding Z-score": 0.432}
{"sequence": "AGUCGAG", "RNAcompete 7-mer binding Z-score": 0.326}
{"sequence": "GAGCCUA", "RNAcompete 7-mer binding Z-score": -0.726}
{"sequence": "CUGACCC", "RNAcompete 7-mer binding Z-score": -0.923}
{"sequence": "CCUUAAA", "RNAcompete 7-mer binding Z-score": -0.81}
{"sequence": "GACGCCC", "RNAcompete 7-mer binding Z-score": -0.836}
{"sequence": "UCUGAGC", "RNAcompete 7-mer binding Z-score": -0.646}
{"sequence": "AUGAGAG", "RNAcompete 7-mer binding Z-score": 1.03}
{"sequence": "GCCACGU", "RNAcompete 7-mer binding Z-score": -0.446}
